This is an account of results in paper PMC4336329 (PLoS ONE, 2015).

About 2,200 (0.71%) of roughly 310,000 compounds showed an effect of 50% or more. Effects have a minus sign here. The list shows a part of the results.

This experiment deals with human ether-à-go-go-related gene (hERG) potassium channel (human, UniProt Q12809). The experiment can be described thus: primary screen, population patch clamp on CHO cells stably expressing hERG.
Sequence of human ether-à-go-go-related gene (hERG) potassium channel (Q12809 whole entry, looked up): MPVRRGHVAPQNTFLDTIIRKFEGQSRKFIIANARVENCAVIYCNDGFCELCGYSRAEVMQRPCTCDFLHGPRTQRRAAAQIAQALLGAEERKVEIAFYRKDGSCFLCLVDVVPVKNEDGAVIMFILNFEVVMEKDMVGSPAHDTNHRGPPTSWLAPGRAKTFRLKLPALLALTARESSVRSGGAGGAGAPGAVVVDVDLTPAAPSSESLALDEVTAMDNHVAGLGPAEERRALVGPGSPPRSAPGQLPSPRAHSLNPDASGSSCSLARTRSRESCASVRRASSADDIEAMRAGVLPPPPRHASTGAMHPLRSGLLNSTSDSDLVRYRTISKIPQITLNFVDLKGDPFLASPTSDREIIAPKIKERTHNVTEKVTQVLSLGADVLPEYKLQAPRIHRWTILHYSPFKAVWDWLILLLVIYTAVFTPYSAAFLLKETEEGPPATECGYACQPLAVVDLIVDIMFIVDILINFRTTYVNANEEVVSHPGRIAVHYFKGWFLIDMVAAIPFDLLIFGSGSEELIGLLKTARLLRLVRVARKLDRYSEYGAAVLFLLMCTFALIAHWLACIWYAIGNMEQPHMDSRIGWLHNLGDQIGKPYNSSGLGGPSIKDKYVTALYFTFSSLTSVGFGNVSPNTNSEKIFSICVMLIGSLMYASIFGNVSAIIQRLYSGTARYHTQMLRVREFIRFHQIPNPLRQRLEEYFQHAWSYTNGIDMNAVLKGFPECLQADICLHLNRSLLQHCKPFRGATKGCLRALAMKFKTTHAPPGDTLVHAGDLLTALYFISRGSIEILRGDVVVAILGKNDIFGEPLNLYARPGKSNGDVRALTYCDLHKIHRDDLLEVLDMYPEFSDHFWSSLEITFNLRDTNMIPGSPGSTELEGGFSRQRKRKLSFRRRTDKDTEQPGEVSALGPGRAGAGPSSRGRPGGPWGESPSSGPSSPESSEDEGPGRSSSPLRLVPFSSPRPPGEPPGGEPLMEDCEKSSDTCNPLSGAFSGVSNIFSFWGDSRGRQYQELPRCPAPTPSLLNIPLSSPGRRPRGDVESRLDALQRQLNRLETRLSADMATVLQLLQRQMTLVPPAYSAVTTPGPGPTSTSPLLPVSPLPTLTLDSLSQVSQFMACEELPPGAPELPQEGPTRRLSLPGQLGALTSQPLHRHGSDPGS
Regarding `CN1CCN(C(=O)/C(=C\c2cccs2)NC(=O)c2ccccc2)CC1`, the “hERG current change (%, negative = inhibition) at 1uM” value was -78.3%. On to `Cn1c(CNC(=O)CNC(=O)Cc2ccc(F)cc2)cc(=O)n(C)c1=O`, for which the “hERG current change (%, negative = inhibition) at 1uM” value amounted to 17.7%. Then `CCCCOc1ccc(C(=O)NCC(=O)NCCOc2ccc(C)cc2)cc1`, with 4.59%.

`Cc1nc2ccccc2c(=O)n1NC(=O)c1ccc(Cl)c([N+](=O)[O-])c1`: the “hERG current change (%, negative = inhibition) at 1uM” value was -2.19%. Then `O=C(COc1coc(CN2CCc3ccccc3C2)cc1=O)Nc1cccc([N+](=O)[O-])c1`, with 8.33%.

`CC[C@H]1OC(=O)[C@H](C)[C@@H](O[C@H]2C[C@@](C)(OC)[C@@H](O)[C@H](C)O2)[C@H](C)[C@@H](O[C@@H]2O[C@H](C)C[C@H](N(C)C)[C@H]2O)[C@](C)(O)C[C@@H](C)CN(C)[C@H](C)[C@@H](O)[C@]1(C)O`: the “hERG current change (%, negative = inhibition) at 1uM” value is listed as 6.28%. Then `COc1ccc(C(=O)Nc2ccccc2C(=O)NC(Cc2ccc(O)cc2)C(=O)NNC(=O)c2ccncc2)cc1` (stereo not drawn), with 9.21%; and `CCc1nc(SCc2ccc(Br)cc2)n[nH]1`, with 12.7%; and `Cc1ccsc1C(=O)Nc1ccc(C(=O)O)cc1`, with 0.214%.

`CCCn1c(SCC(N)=O)nnc1C(C)C`: the “hERG current change (%, negative = inhibition) at 1uM” value was 12.8%. Then `COc1ccc(C2C(C(=O)NCC3CCCO3)CCC(=O)N2c2ccc3c(c2)OCO3)cc1` (stereo not drawn), with 7.84%.

As to `Nc1ccc(Cc2nc3c(ccc4ccccc43)[nH]2)cc1`, the “hERG current change (%, negative = inhibition) at 1uM” value worked out at 0.194%. Then `CCOC(=O)CNC(=O)N1CCc2ccc(NC(=O)c3ccccc3Cl)cc2C1`, with 9.15%.

Regarding `CC(=O)OC(C(=O)NC1CCCCC1)c1ccc(Cl)cc1` (stereo not drawn), the “hERG current change (%, negative = inhibition) at 1uM” value was found to be 13.9%. `O=C(CCc1nc2ccccc2c(=O)[nH]1)Nc1cc(C(F)(F)F)ccc1N1CCOCC1`: the “hERG current change (%, negative = inhibition) at 1uM” value amounted to 3.13%. For `CCOc1ccc(C(=O)NCC(=O)OCC(=O)Nc2cccc(S(=O)(=O)N3CCCC3)c2)cc1` the value was 8.1%. In the case of `O=C(COC(=O)/C=C/c1ccc([N+](=O)[O-])cc1)NC(c1ccccc1)c1ccccc1`, the “hERG current change (%, negative = inhibition) at 1uM” value worked out at 0.898%.

On to `Cc1c(-c2ccccc2)[nH]n2c(=O)c3c(nc12)CCCC3`, for which the “hERG current change (%, negative = inhibition) at 1uM” value is given as 4.19%.

In the case of `O=C(COc1ccccc1)Nc1ccc(CN2CCCCC2)cc1`, the “hERG current change (%, negative = inhibition) at 1uM” value came to 3.49%. For the compound `CCN(c1ccccc1)c1nc2nonc2nc1NCCO`, the “hERG current change (%, negative = inhibition) at 1uM” value is 13.4%. For `Cc1cc(NC(=O)c2cc(C(C)C)on2)no1` the value was 0.819%.

On to `CCc1noc(C)c1C(=O)Nc1cc(S(=O)(=O)N(CC)CC)ccc1N1CCCC1`, for which the “hERG current change (%, negative = inhibition) at 1uM” value is -7.11%. For `O=C(Nc1ccc(F)cc1)C1CCCCC1` the value was 3.09%; for `COc1ccc(C2=C(Nc3ccc(F)cc3)c3ccccc3C2=O)cc1`, 13%; for `CC(C(=O)Nc1ccccc1-c1ccccc1)N1CCN(C(=O)c2ccccc2)CC1` (stereo not drawn), -34.4%. For `COc1ccccc1N(C)S(=O)(=O)c1ccc(C(=O)NC(C)c2ccccc2)cc1` (stereo not drawn) the value was 8.1%; for `NC(N)=Nc1nc2cc([N+](=O)[O-])ccc2o1`, 10.7%; for `CCCCOC(=O)n1c(=S)oc2cc(Cl)ccc21`, 9.47%. Then `COc1cc(NC(=O)CN(C)S(=O)(=O)c2ccc3nc(C)sc3c2)cc(OC)c1`, with 29.4%; and `CCOc1cc(S(=O)(=O)Nc2ncn[nH]2)ccc1Br`, with 14.8%; and `CC(C)(C)c1ccc(-c2noc(CCC(=O)Nc3cccnc3)n2)cc1`, with 17.8%. With `COc1cc(CNc2ccc3[nH]c(=O)[nH]c3c2)cc(Br)c1OCc1ccc(F)cc1`, the “hERG current change (%, negative = inhibition) at 1uM” value is given as 18.3%.

Turning to `CCC1=Nc2cc(C(=O)N3CCC4(CC3)OCCO4)ccc2Sc2ccc(C)cc21`, the “hERG current change (%, negative = inhibition) at 1uM” value is 10.5%. For `Cc1ccsc1/C=N/NC(=O)C(O)c1ccccc1` (stereo not drawn) the value was 17%; for `CN(C)S(=O)(=O)c1cc(NC(=O)CN2CCOCC2)ccc1Cl`, 16.1%; for `CN(C)CCCNC(=S)NCCNc1nc2cc3c(cc2cc1C#N)OCO3`, -14.9%. For `CCOC(=O)c1sc(NC(=O)C(CC)Sc2nnc3c4ccccc4n(CC)c3n2)nc1C` (stereo not drawn), the “hERG current change (%, negative = inhibition) at 1uM” value is -4.01%.

On to `O=C(CSc1ccc(Cl)cc1)NC(=O)NCc1ccco1`, for which the “hERG current change (%, negative = inhibition) at 1uM” value was 5.53%. For `COc1cc(/C=N/NC(=O)C2c3ccccc3Oc3ccccc32)ccc1O` the value was 8.49%; for `COc1ccc(C(=O)COC(=O)c2cncc(Br)c2)cc1`, 10.3%; for `N=c1c(C(=O)NCC2CCCO2)cc2c(=O)n3ccccc3nc2n1C1CCCCC1` (stereo not drawn), -79.2%.

With `CC(=O)c1c(C)nc(-c2ccc(OCC(=O)Nc3ccc(F)cc3)cc2)n1O`, the “hERG current change (%, negative = inhibition) at 1uM” value turned out to be 3.16%. Then `O=C1CN(C(=O)COc2ccccc2F)c2ccccc2N1`, with 10.1%; and `Nc1cc(C(=O)N2CCCC2)cc(C(=O)N2CCCC2)c1`, with 16%. As to `O=C(Nc1ccccc1)c1cccnc1N1CCCC1`, the “hERG current change (%, negative = inhibition) at 1uM” value came out at 6.81%. As to `CCN(CCCNC(=O)C1CCC(=O)N1C(C)C)c1cccc(C)c1` (stereo not drawn), the “hERG current change (%, negative = inhibition) at 1uM” value is -1.36%.

Turning to `COc1ccccc1N1CC(O)=C(c2nc3ccccc3c(=O)[nH]2)C1=N`, the “hERG current change (%, negative = inhibition) at 1uM” value worked out at 8.4%. Then `C=CCSc1nc2[nH]ncc2c(=O)[nH]1`, with 9.73%.

`COc1ccc(NC(=O)CN(C)CC(=O)Nc2sc3c(c2C#N)CCC3)cc1`: the “hERG current change (%, negative = inhibition) at 1uM” value came to 10.6%. Consider `CN(C)C(=O)COC(=O)c1cccc(S(=O)(=O)Nc2ccc(OCc3ccccc3)cc2)c1`, for which the “hERG current change (%, negative = inhibition) at 1uM” value was determined as 13.1%. For `N#Cc1c(NC(=O)/C=C/C(=O)O)sc2c1CCN(Cc1ccccc1)C2`, the “hERG current change (%, negative = inhibition) at 1uM” value is given as 9.47%.

As for `C=CCn1c(=S)[nH]c2cc(C(=O)Nc3ccc(OC)c(OC)c3)ccc2c1=O`, the “hERG current change (%, negative = inhibition) at 1uM” value was 11.7%. For `COc1ccc(-c2nn(-c3ccccc3)cc2/C=N/NC(=O)c2ccc(Br)o2)cc1` the value was 2.64%; for `CCCN(CCC)C(=O)CP(=O)(c1ccccc1)c1ccccc1`, -1.18%.
